Results published in PubChem BioAssay AID686978 (National Center for Advancing Translational Sciences (NCATS), 2013).
Among all 420,000 compounds or so, about 64,000 (15%) were called active. This list was built around the results that the source calls inconclusive (neither active nor inactive); the mix of calls is not that of the screen. Calls follow the shape of the dose curve; as a rule, active = well fitted inhibition curve with a large enough effect; inconclusive = small, poorly fitted or top-dose-only effect; inactive = flat fitted curve, though single readings scatter. Potencies of inconclusive entries are left out as doubtful fits.

experiment: qHTS for Inhibitors of human tyrosyl-DNA phosphodiesterase 1 (TDP1): qHTS in cells in absence of CPT; conditions: DT40 Tdp1-/- hTDP1 cells, no CPT, ATP luminescence, 48 h; activity change, negative = growth inhibition: at 46.2 µM (top of the series); also: nearly all actives have a fitted effect of over 55% in size
Procedure, shortened: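 Compound effects on proliferation are scored in DT40 Tdp1-/-;hTDP1 cells in the absence of CPT. ATP levels (CellTiter-Glo luminescence) are recorded after a ≥48 hr, 37 °C incubation.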
% is scaled to controls: 0 for no effect and ±100 for the full control effect; potency is read from the fitted curve at half-maximal effect; tags tell the direction and shape of the fitted curve.

Row | Structure (SMILES) | Potency | activity change, negative = growth inhibition
1 | CCn1cc(/C=C/C(=O)Nc2ccn(Cc3c(F)c(F)c(F)c(F)c3F)n2)cn1 | inconclusive [inhibitor, single point] | 
2 | COc1ccc(NC(=O)c2cccc(Cl)c2)c[n+]1[O-] | inactive | 
3 | Cc1cc(=O)n2nc(N3CCCC(C(=O)Nc4ccc(C)c(C)c4)C3)sc2n1 (centres undefined) | inconclusive [inhibitor, partial curve] | 
4 | Cc1c(-c2cccc(Cl)c2)nc2ccccc2c1C(=O)OCC(=O)Nc1ccc2c(c1)OCO2 | inconclusive [inhibitor, single point] | 
5 | COC(=O)c1ccc(OCC2c3cc(OC)c(OC)cc3CCN2C(=O)COc2ccc(Cl)cc2)cc1 (centres undefined) | active: 29.1 µM | 
6 | CCc1ccc(C2c3[nH]c4ccccc4c3CCN2C(=O)c2cc(C)nn2C)cc1 (centres undefined) | inconclusive [inhibitor, single point] | 
7 | CN(CC1CCCO1)S(=O)(=O)c1ccc(C(=O)Nc2ccc3c(c2)OCO3)cc1 (centres undefined) | inconclusive [inhibitor, partial curve] | 
8 | COc1ccc(F)cc1S(=O)(=O)NCCc1csc2nc(-c3cccc(C)c3)nn12 | inconclusive [inhibitor, single point] | 
9 | CCNC(=O)C1(C)CCCN(C(=O)C2(c3ccc(Cl)cc3)CCCC2)C1 (centres undefined) | inconclusive [inhibitor, single point] | 
10 | CCCCNS(=O)(=O)c1ccc(NC(=O)c2cccs2)cc1 | inconclusive [inhibitor, partial curve, poor fit] | 
11 | CCOC(=O)c1c(S(=O)(=O)N2CCCC(C(=O)NCc3ccc(Cl)cc3)C2)c(C)n(C)c1C (centres undefined) | inconclusive [inhibitor, single point] | 
12 | Cc1csc(SC(C)C(=O)NCC2CCCO2)n1 (centres undefined) | inactive | 
13 | Cc1cc2[nH]cnc2c([N+](=O)[O-])c1C | inconclusive [inhibitor, partial curve] | 
14 | Cc1nnc2sc(-c3ccc(NC(=O)CSc4ccc(Cl)cc4)cc3)nn12 | inactive | 
15 | CCCN(CC(=O)Nc1ccc(C(C)=O)cc1)CC(=O)Nc1ccccc1C | inconclusive [inhibitor, single point] | 
16 | CSc1ccc(C2NC(=O)c3c(sc4c3CCN(C)C4)N2)cc1 (centres undefined) | inconclusive [inhibitor, single point] | 
17 | Cc1cc2c(cc1C)NC(=O)CC(c1ccccc1)=N2 | inconclusive [inhibitor, single point] | 
18 | O=C1CS/C(=N/N=C\c2ccn[nH]2)N1 | inactive | 
19 | CN(C1=NC(=O)C(CC(=O)Nc2ccc(Br)cc2)S1)c1ccc(O)cc1 (centres undefined) | inconclusive [inhibitor, single point] | 
20 | CCOC(=S)SCC(=O)N1CCc2cc(OC)ccc2C1C1C(=O)CCCC1=O (centres undefined) | active: 18.4 µM | 
21 | CCCCNC(=O)C(C)N(CCN(C)C)C(=O)CCCN1C(=O)NC(c2ccc(Cl)cc2)C(C(=O)OCc2ccccc2)=C1C (centres undefined) | active: 18.4 µM | 
22 | CCOC(=O)N1CCN(C(=O)c2ccc3c(=O)n(CCC4=CCCCC4)c(=O)[nH]c3c2)CC1 | active: 18.4 µM | 
23 | C=CCN1C(=O)N/C(=C/c2ccccc2OCC(=O)Nc2ccc(F)cc2)C1=O | inconclusive [inhibitor, single point] | 

Row | Structure (SMILES) | Potency | activity change, negative = growth inhibition
24 | O=C(COc1ccccc1F)NNC(=O)c1ccc(N2CCCCC2)c([N+](=O)[O-])c1 | inactive | 
25 | CCOC(=O)C1=C2c3ccc4ccccc4c3CC(C)(C)N2C(=O)C1=O | inconclusive [inhibitor, partial curve] | 
26 | Cc1cc(C)nc(N/N=C/c2sccc2C)n1 | inconclusive [inhibitor, single point] | 
27 | COc1ccc(-n2nc3c(c2NC(=O)c2c(-c4ccccc4Cl)noc2C)CS(=O)(=O)C3)cc1 |  | inconclusive: -31.9% [inhibitor]
28 | CC(=O)c1nn(-c2ccccc2)cc1C(=O)c1ccc(C)cc1 | active: 23.1 µM | 
29 | CN(C)C(CNC(=O)CCNS(=O)(=O)c1ccccc1C(F)(F)F)c1ccccc1 (centres undefined) | inactive | 
30 | CCC(=O)N1CCC1(C)C(=O)Nc1cccc2cccnc12 (centres undefined) | inactive | 
31 | CCc1cccc(NC(=O)C2CCN(C(=O)c3cnn(-c4ccccc4)c3-n3cccc3)CC2)c1 | active: 14.6 µM | 
32 | CN1CCN(C(=O)c2cc(COc3ccccc3)on2)[C@@H](c2ccccc2)C1 | inconclusive [inhibitor, partial curve] | 
33 | Nc1nc(Nc2ccccc2F)sc1C(=O)c1ccc(Cl)cc1 | inconclusive [inhibitor, single point] | 
34 | COc1cc2sc(-c3ccc(S(C)(=O)=O)cc3)c(C(=O)NCc3ccc(C)o3)c2cc1OC | active: 13 µM | 
35 | CCc1ccc([C@H]2[C@@H]3C(=O)C[C@@H]4C(=O)NC(=O)[C@@H]4[C@@H]3CN2S(=O)(=O)c2ccc(C)cc2)cc1 | inactive | 
36 | CCOC(=O)C1CCCN(C(=O)c2nn(-c3ccc(OC)cc3)c(=O)c3c2c2ccccc2n3C)C1 (centres undefined) | inconclusive [inhibitor, partial curve] | 
37 | Cc1ccc(NC(=O)CSc2nc3ccccc3c(=O)n2CCCN2CCCCC2)cc1C | inconclusive [inhibitor, single point] | 
38 | COc1ccc(NC(=O)c2ccc(NC(=O)C(C)C)cc2)c([N+](=O)[O-])c1 | inactive | 
39 | Clc1ccc(/C(Cc2nc3ccccc3[nH]2)=N\Nc2ccccc2)cc1 | inconclusive [inhibitor, single point] | 
40 | COc1cc2c(cc1OC)C1=C(C#N)CC/C(=N\S(=O)(=O)c3cccc(Cl)c3)N1CC2 | inactive | 
41 | COc1cc(Cl)c(C)cc1NC(=O)CSc1nnc(-c2ccco2)n1CC(C)C | inconclusive [inhibitor, single point] | 
42 | COc1cc(OC)c2ccc(=O)oc2c1C(CC(=O)N1CCCC1)c1ccc(N(C)C)cc1 (centres undefined) | inconclusive [inhibitor, single point] | 
43 | O=C(c1cccc(S(=O)(=O)N2CCCCC2)c1)N(CCc1ccccc1)Cc1ccccc1 | inconclusive [inhibitor, single point] | 
44 | COc1ccc(CNC(=O)C/C(C)=N/NC(=O)Cc2ccc(OC)c(OC)c2)cc1 | inactive | 
45 | Cc1cccc(C(=O)N[C@H](C(=O)Nc2ccc(C)c(S(=O)(=O)N3CCOCC3)c2)C(C)C)c1 | inconclusive [inhibitor, single point] | 
46 | Cc1cccc(OCC(=O)Nc2cc(C)on2)c1 | inactive | 

Row | Structure (SMILES) | Potency | activity change, negative = growth inhibition
47 | CCCCCC(=O)NNC(=O)c1c(O)c2ccccc2n(CC)c1=O | inconclusive [inhibitor, partial curve, poor fit] | 
48 | O=C(NCc1ccco1)c1ccc(COc2ccccc2Cl)cc1 | inconclusive [inhibitor, single point] | 
49 | N#Cc1c(NC(=O)C2CC(Cl)=CCC2C(=O)O)sc2c1CCCCC2 (centres undefined) | inconclusive [inhibitor, single point] | 
50 | Cc1cccc(OC(C)C(=O)Nc2ccc(S(=O)(=O)N3CCCC3)cc2)c1 (centres undefined) | inconclusive [inhibitor, single point] | 
51 | O=C(COC(=O)CSc1ccc(Br)cc1)NCc1ccco1 | inactive | 
52 | CC(C)CNC(=O)c1ccc2c(c1)C(=O)N(Cc1ccco1)C2=O | inactive | 
53 | O=C(NCCN1CCOCC1)c1ccc2ccccc2n1 | inactive | 
54 | Cc1c(C(=O)N(Cc2ccccc2F)C2CCS(=O)(=O)C2)oc2ccc(F)cc12 (centres undefined) | active: 20.6 µM | 
55 | N#Cc1ccc(C(=O)NC(=S)NC2CCCCC2)cc1 | inconclusive [inhibitor, single point] | 
56 | CC(=O)N1N=C(c2ccc3ccccc3c2)OC1(C)C | inconclusive [inhibitor, single point] | 
57 | CC(C)(C)c1ccc(OCCNC(=O)Cc2ccc(F)cc2)cc1 | inconclusive [inhibitor, single point] | 
58 | COc1ccc(CCNC(=O)/C(=C/c2cccnc2)NC(=O)c2ccccc2)cc1OC | inactive | 
59 | COCCN1C(=O)c2ccccc2C(C(=O)NCc2ccco2)C1c1c[nH]c2ccccc12 (centres undefined) | inactive | 
60 | O=C(NCc1ccccc1)c1sc(=S)n2c1[nH]c(=O)c1ccccc12 | inactive | 
61 | CCn1cc(C(=O)OCC(=O)NCc2ccccc2Cl)c(=O)c2ccc(C)nc21 | inconclusive [inhibitor, partial curve, poor fit] | 
62 | CCOc1ccc(S(=O)(=O)NCCC(=O)NCCc2ccc(C(C)C)cc2)cc1 | inconclusive [inhibitor, single point] | 
63 | COC(=O)c1ccc2c(=O)n(CCN3CCOCC3)c(SCC(=O)Nc3ccccc3OC)nc2c1 | inconclusive [inhibitor, partial curve, poor fit] | 
64 | CCOC(=O)c1cnc2ccc(OC)cc2c1NCCc1ccccc1 | active: 10.3 µM | 
65 | Cn1c(=O)c2c(SCC(=O)NCc3ccco3)nc(-c3ccccc3)nc2n(C)c1=O | inactive | 
66 | C=C1CCN([C@@H](C)C(=O)NCc2ccc(Cl)cc2)S(=O)(=O)c2ccccc21 | inconclusive [inhibitor, single point] | 
67 | CC1(c2cccc(Br)c2)NC(=O)N(CC(=O)N2CCc3ccccc32)C1=O (centres undefined) | inconclusive [inhibitor, single point] | 
68 | CCC(C)c1ccccc1NC(=O)COC(=O)C1=NN(c2ccccc2)C(=O)CC1 (centres undefined) | inactive | 
69 | COc1ccc(N2CC(NC(=O)COc3ccccc3)CC2=O)cc1OC (centres undefined) | inactive | 
